Test results: PubChem BioAssay AID686979 (National Center for Advancing Translational Sciences (NCATS), 2013)
“And” between values parts separate entries of the source, which are not always exact repeats. Equal entries are not always repeated. Among all 420,000 compounds or so, about 50,000 (12%) were called active. The shares of active, inactive and inconclusive entries below differ from those in the screen. Calls come from the whole dose curve; as a rule, active = well fitted inhibition curve with a large enough effect; inconclusive = small, poorly fitted or top-dose-only effect; inactive = flat fitted curve, though single readings scatter. Where the call is inconclusive, the potency comes from a doubtful curve fit.

Assay: qHTS for Inhibitors of human tyrosyl-DNA phosphodiesterase 1 (TDP1): qHTS in cells in presence of CPT; note: nearly all actives have a fitted effect of over 55% in size
Conditions: chicken DT40 Tdp1-/-;hTDP1 cells + 20 nM CPT, ATP luminescence, 48 h; activity change, negative = growth inhibition: at 46.2 µM (top of the series)
In short: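 Cell growth measured by CellTiter-Glo luminescence after a minimum 48 h, 37 C compound exposure with 20 nM CPT in Tdp1-knockout DT40 cells stably expressing hTDP1, seeded 400/well; qHTS titration format.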
% is set by controls: 0 for no effect and ±100 for the full control effect; potency is the fitted concentration of half-maximal effect; tags give direction and shape of the fitted curve.

Structure (SMILES) | Potency | activity change, negative = growth inhibition
COc1ccc(CNC(=O)c2c(Nc3ccc(OC)cc3OC)sc(C(=O)c3ccc(Cl)cc3)c2N)cc1 | inconclusive: 11.6 µM [inhibitor, single point] | –
Cc1cc(C)cc(NC(=O)c2cccnc2)c1 | – | inactive: 3.43%
CCN1C(=O)/C(=C/C=C2/Sc3ccccc3N2CCO)SC1=S | inconclusive: 16.4 µM [inhibitor, partial curve, poor fit] | –
Nc1nc(N)nc(-c2ccc([N+](=O)[O-])o2)n1 | inconclusive: 16.4 µM [inhibitor, single point] | –
Cc1ccc(C(c2nnnn2C(C)(C)C)N(Cc2ccco2)Cc2cccs2)cc1 (configuration not stated) | inconclusive: 29.1 µM [inhibitor, single point] | –
S=c1nc[nH]c2c1[nH]c1ccccc12 | – | inactive: -9.18%
Cc1ccccc1NS(=O)(=O)CCCCC(Cl)(Cl)Cl | inconclusive: 23.1 µM [inhibitor, single point] | –
CCc1nc2ccc(C(=O)NCCN3CCNC3=O)cn2c1N(CCC(C)C)CCN(C)C | – | inactive: -15.6%
COc1cc(OC)cc(C(=O)Nc2sc3c(c2C(N)=O)CCC3)c1 | – | inactive: 1.1%
O=C1C(Cc2ccccc2)Nc2ncnc(N3CCOCC3)c2N1Cc1ccc(Br)cc1 (configuration not stated) | inactive and inconclusive: 29.1 µM [inhibitor, single point] | –
O=C(c1ccc(S(=O)(=O)N2CCOCC2)cc1)N1CCN(S(=O)(=O)c2ccc(Cl)s2)CC1 | inconclusive: 18.4 µM [inhibitor, single point] | –
CCOC(=O)c1sc(NC(=O)CSc2nc3c(cc2C#N)CCCCC3)c(C#N)c1C | inconclusive: 25.9 µM [inhibitor, single point] | –
COCCN(Cc1cc2cc(C)ccc2[nH]c1=O)S(=O)(=O)c1ccc(Cl)cc1 | inconclusive: 29.1 µM [inhibitor, single point] | –
COc1ccc(NC(=O)N(C)C[C@H]2Oc3c(NS(=O)(=O)c4cccs4)cccc3C(=O)N([C@@H](C)CO)C[C@@H]2C)cc1 | – | inactive: 2.92%
CCC(C)Nc1nc(N)c([N+](=O)[O-])c(Nc2ccccc2OC)n1 (configuration not stated) | inconclusive: 29.1 µM [inhibitor, single point] | –
CN(C)CCCN(C(=O)CCOc1ccccc1)c1nc2c(F)cccc2s1 | active: 5.8 µM | –
COCCC(=O)N1CCCC(C(=O)c2ccc(C(F)(F)F)cc2)C1 (configuration not stated) | – | inactive: -21.7%
CCOc1ccc(NC(=O)Nc2nnc(CC)s2)cc1 | – | inactive: 9.38%
Cc1noc(C)c1S(=O)(=O)NCc1ccc(CN(C)C)cc1 | – | inactive: 1.63%
CC(COc1ccccc1)N1CCC(CO)(CCc2ccccc2)CC1 (configuration not stated) | inconclusive: 29.1 µM [inhibitor, single point] | –
CCCCNC(=O)CS(=O)Cc1nc(-c2cccc(Cl)c2)oc1C (configuration not stated) | inconclusive: 29.1 µM [inhibitor, single point] | –

Structure (SMILES) | Potency | activity change, negative = growth inhibition
O=C(CNc1ccccc1-c1ccccc1)NCc1ccccc1 | inconclusive: 29.1 µM [inhibitor, single point] | –
COc1ccc(-c2cnc(N)n2CC2CCCO2)cc1 (configuration not stated) | – | inconclusive: -31.6% [inhibitor]
CC(=O)c1ccc(N2CCN(C(=O)CCS(=O)(=O)c3ccc4c(c3)NC(=O)CS4)CC2)cc1 | active: 18.4 µM | –
CC(=O)Nc1ccc(NS(=O)(=O)c2ccc3c(c2)CC(C)N3C(=O)C2CCC2)cc1 (configuration not stated) | inconclusive: 16.4 µM [inhibitor, single point] | –
CCOC(=O)c1c(C)[nH]c(C(=O)OCC(=O)Nc2cc(C)nn2-c2ccccc2)c1C | inconclusive: 20.6 µM [inhibitor, single point] | –
O=C(Nc1cccc(-c2nc3ccccc3o2)c1)c1cc([N+](=O)[O-])ccc1N1CCOCC1 | inconclusive: 18.4 µM [inhibitor, single point] | –
COc1ccc(S(=O)(=O)N(C)C[C@@H]2OCCCC[C@@H](C)Oc3ccc(NS(=O)(=O)c4cccs4)cc3C(=O)N([C@H](C)CO)C[C@@H]2C)cc1 | inconclusive: 18.4 µM [inhibitor, single point] | –
COc1ccc(CCNC(=S)Nc2cccc(C)c2C)cc1 | inconclusive: 23.1 µM [inhibitor, single point] | –
COc1ccc(-c2cc(C(F)(F)F)nc(-n3ccnc3C)n2)cc1 | inconclusive: 29.1 µM [inhibitor, single point] | –
CCN(C[C@H]1N[C@@](Cc2ccccc2)(C(=O)OC)[C@H]2C(=O)N(Cc3ccccc3)C(=O)[C@@H]12)S(=O)(=O)c1ccccc1 | inconclusive: 13 µM [inhibitor, partial curve, poor fit] | –
CCn1c(C)nc2cc(C(=O)NNC(=S)NC(=O)c3ccccc3)ccc21 | inconclusive: 18.4 µM [inhibitor, single point] | –
CCC1CCCCN1CCCNC(=O)c1ccc(CS(=O)(=O)c2ccccc2C)o1 (configuration not stated) | – | inactive: -12.8%
Cc1cccc(C)c1OCCSc1nc2ccccc2n1CC(=O)O | inactive | –
CCC(C)(C)n1nnnc1C(c1cc2ccc(OC)cc2[nH]c1=O)N1CCc2ccccc21 (configuration not stated) | inconclusive: 32.6 µM [inhibitor, single point] | –
COc1ccc(N2CCN(S(=O)(=O)c3csc(C(N)=O)c3)CC2)cc1 | – | inactive: -14.8%
CCc1cccc2c(/C=N/NC(=O)c3cccc(S(=O)(=O)Nc4ccccc4Cl)c3)c[nH]c12 | inconclusive: 29.1 µM [inhibitor, single point] | –
O=C(NC1CCCCCC1)c1ccc(=O)n(Cc2ccccc2)n1 | inconclusive: 25.9 µM [inhibitor, single point] | –
CC(CC(=O)Nc1ccc2c(c1)c(=O)n(C)n2Cc1ccc(Cl)cc1)C(F)(F)F (configuration not stated) | inconclusive: 23.1 µM [inhibitor, single point] | –
CC(=O)Nc1ccc(NC(=O)CSc2nc3c(=O)n(C)c(=O)n(C)c3n2C)cc1 | – | inactive: 3.2%
O=C(c1ccc(Cl)c(S(=O)(=O)N2CCCCCC2)c1)N1CCCC1 | inconclusive: 29.1 µM [inhibitor, single point] | –
CC(C)(C)N(Cc1ccccc1)C(=O)CCc1ccccc1 | inconclusive: 29.1 µM [inhibitor, single point] | –
